The whole screen tested about 360,000 compounds, of which about 7,500 (2.1%) were called active. This list was built around the results that the source calls inconclusive (neither active nor inactive); the mix of calls is not that of the screen. Calls follow the shape of the dose curve; as a rule, active = well fitted cell-killing curve with a large enough effect; inconclusive = small, poorly fitted or top-dose-only effect, or effect the other way, or another doubt; inactive = no such curve, though single readings can be large or run the other way. Potencies of inconclusive entries are left out as doubtful fits.
Test: qHTS for induction of synthetic lethality in tumor cells producing 2HG: qHTS for the HT-1080-IDH1KD cell line
Settings: HT-1080 IDH1 knockdown viability, ATP luminescence, 48 h; series mostly up to 46.1 µM
How it was run: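 Assay cells: HT-1080 with IDH1 knockdown, 750 per well, RPMI/5% FBS. Exposure: 48 h at 37 °C following 2 h pre-incubation. Read: CellTiter-Glo luminescence; fitted concentration-response, curve class assigned.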
Potency is read from the fitted curve at half-maximal effect; tags tell the direction and shape of the fitted curve.

**Q.** With `CC(C)c1nc2sc3c(c2c(=O)[nH]1)CC(C)(C)OC3` as the compound, how does the Potency read?
**A.** inactive

**Q.** Which Potency does the source give for `Cc1ccc(CSc2nc3c(c(SCC(=O)O)n2)CCCC3)cc1` here?
**A.** inactive

**Q.** For `O=C(Cc1ccc(S(=O)(=O)N2CCOCC2)s1)Nc1cc(C(F)(F)F)cc(C(F)(F)F)c1`, which Potency is on record?
**A.** inconclusive [cytotoxic, single point]

**Q.** With `O=C(Nc1ccccc1F)C1CCCN1S(=O)(=O)c1ccc(Cl)cc1` (configuration not stated) as the compound, how does the Potency read?
**A.** inactive

**Q.** Which Potency does the source give for `COc1cc(O)oc1C=Nc1ccc(C(=O)O)cc1` here?
**A.** inconclusive [cytotoxic, partial curve]

**Q.** Which Potency does the source give for `COCCCNc1nc(-c2ccc(Cl)cc2)nc2ccccc12` here?
**A.** inconclusive [cytotoxic, single point]

**Q.** Which Potency does the source give for `Cc1nn(-c2ccccc2)c2sc(C(=O)N3CCc4ccccc4C3)cc12` here?
**A.** inconclusive [cytotoxic, single point]

**Q.** Which Potency does the source give for `CCCc1nc2sc3c(c2c(=O)n1NC(=O)CCCl)CCCC3` here?
**A.** inconclusive [cytotoxic, partial curve]

**Q.** Which Potency does the source give for `Cn1c(=O)n(C)c2cc(NC(=O)c3cc4ccccc4o3)ccc21` here?
**A.** inconclusive [cytotoxic, single point]

**Q.** Which Potency does the source give for `COC(=O)c1ccc(CNC(=O)C(NC(=O)c2ccco2)C(C)C)cc1` (configuration not stated) here?
**A.** inactive

**Q.** With `Cc1cccc(NC(=O)CSc2nc3ccccc3c3nc(CCc4c(C)n[nH]c4C)nn23)c1` as the compound, how does the Potency read?
**A.** inconclusive [cytotoxic, single point]

**Q.** Which Potency does the source give for `O=C1C(=Cc2ccccc2[N+](=O)[O-])Cc2ccccc21` here?
**A.** inconclusive [cytotoxic, partial curve]

**Q.** With `Oc1ccc(Cl)cc1C=NN1CCCCCC1` as the compound, how does the Potency read?
**A.** inconclusive [cytotoxic, single point]

**Q.** Which Potency does the source give for `COc1cc2cncnc2cc1OCCCCC(N)=O` here?
**A.** inactive

**Q.** Which Potency does the source give for `O=c1[nH]c(C2CCN(S(=O)(=O)c3ccc(C(F)(F)F)cc3)CC2)nc2c1nnn2Cc1ccc(F)cc1` here?
**A.** inconclusive [cytotoxic, single point]

**Q.** Which Potency does the source give for `Cc1ccc(NC(=O)COc2ccc(S(=O)(=O)N3CCOCC3)cc2)cc1` here?
**A.** inconclusive [cytotoxic, partial curve]

**Q.** For `CC(CCc1ccc(O)cc1)N(C)CCc1ccccc1` (configuration not stated), which Potency is on record?
**A.** inactive

**Q.** Which Potency does the source give for `COc1ccccc1-c1cc(C(=O)NCCc2ccccc2)no1` here?
**A.** inconclusive [cytotoxic, single point]

**Q.** With `N/C(=N\OC(=O)c1ccccc1Cl)c1ccccc1` as the compound, how does the Potency read?
**A.** inconclusive [cytotoxic, single point]

**Q.** For `COc1ccccc1C(=O)COC(=O)C1(C)CC1(Cl)Cl` (configuration not stated), which Potency is on record?
**A.** inactive

**Q.** For `COc1cccc(C(=O)Oc2c(CN3CCOCC3)cc(Cl)c3cccnc23)c1`, which Potency is on record?
**A.** active: 11.6 µM

**Q.** For `Cc1ccc(C)c(N2CCN(C(=O)Cn3c(=O)[nH]c4ccsc4c3=O)CC2)c1`, which Potency is on record?
**A.** inactive

**Q.** With `Cc1ccc(-n2c(SCC(=O)NCCC3=CCCCC3)nc3n[nH]c(C)c3c2=N)cc1Cl` as the compound, how does the Potency read?
**A.** inconclusive [cytotoxic, partial curve]

**Q.** For `COc1cccc(CNC23CC4CC(CC(C4)C2)C3)c1OCc1ccccc1`, which Potency is on record?
**A.** inactive

**Q.** For `CCOC(=O)c1ccc(OCC(=O)c2ccc(O)cc2O)cc1`, which Potency is on record?
**A.** inactive

**Q.** For `COc1ccc(C(=O)NC(C)CCc2ccccc2)c(O)c1` (configuration not stated), which Potency is on record?
**A.** inactive

**Q.** With `CCOC(=O)c1c[nH]c2ccc([N+](=O)[O-])cc12` as the compound, how does the Potency read?
**A.** inconclusive [cytotoxic, single point]

**Q.** Which Potency does the source give for `CN1CCN(c2ccccc2NC(=O)c2c(F)cccc2F)CC1` here?
**A.** inactive

**Q.** For `O=C(c1c[nH]c(C(=O)N2CCN(c3ccccc3F)CC2)c1)c1cccc(Cl)c1Cl`, which Potency is on record?
**A.** inconclusive [cytotoxic, partial curve]

**Q.** With `O=C(Nc1cccc(/C=C/c2nc3ccccc3c(=O)[nH]2)c1)c1ccccc1Cl` as the compound, how does the Potency read?
**A.** inconclusive [cytotoxic, single point]

**Q.** For `COc1ccc(CN2CCC(n3nccc3NC(=O)CCCc3ccccc3)CC2)cc1C`, which Potency is on record?
**A.** active: 18.4 µM

**Q.** Which Potency does the source give for `O=C(c1cc(-c2cccc(O)c2)on1)N1CCN(C(c2ccccc2)c2ccccc2)CC1` here?
**A.** inconclusive [cytotoxic, single point]

**Q.** For `CCOC(=O)c1ccc(Nc2sc(C(=O)c3cccc([N+](=O)[O-])c3)c(N)c2C#N)cc1`, which Potency is on record?
**A.** inconclusive [cytotoxic, single point]

**Q.** With `O=C(Nc1ccc(F)cc1)Nc1ccc(N2CCOCC2)c2nonc12` as the compound, how does the Potency read?
**A.** inconclusive [cytotoxic, single point]

**Q.** For `COc1ccc2ccccc2c1C1NC(=O)c2ccccc2N1` (configuration not stated), which Potency is on record?
**A.** inconclusive [cytotoxic, partial curve]

**Q.** For `CCOc1ccc(C(=O)N2CCCC(c3nc(-c4ccc(C)o4)no3)C2)cc1` (configuration not stated), which Potency is on record?
**A.** inactive

**Q.** Which Potency does the source give for `CCOC(=O)c1nc2cc3n(c(C)c-2c1C)C(C)C(C)=C3C` (configuration not stated) here?
**A.** inactive

**Q.** Which Potency does the source give for `Cc1ccc(C(=O)N2N=C(c3ccc(Br)cc3)CC2c2ccccc2O)cc1` (configuration not stated) here?
**A.** active: 14.6 µM

**Q.** For `Cn1cnnc1SCC(=O)Nc1ccccc1Oc1ccccc1`, which Potency is on record?
**A.** inactive

**Q.** For `COc1cc(CNc2ccc(O)cc2)cc(Br)c1OCc1ccccc1F`, which Potency is on record?
**A.** inconclusive [cytotoxic, single point]

**Q.** For `CN(C)c1ccc(C=c2c3ccccc3n3c2c2ccccc2[n+]3C)cc1`, which Potency is on record?
**A.** active: 8.2 µM

**Q.** Which Potency does the source give for `COc1cc(/C=N/NC(=O)Cn2nc([N+](=O)[O-])cc2C)cc(Br)c1OCc1ccccc1` here?
**A.** inconclusive [cytotoxic, single point]

**Q.** Which Potency does the source give for `COc1cc(OC)cc(C(=O)Nc2ccc3c(c2)OCCO3)c1` here?
**A.** inconclusive [cytotoxic, single point]

**Q.** Which Potency does the source give for `CCOC(=O)c1c[nH]c2c([N+](=O)[O-])cc(OC)cc2c1=O` here?
**A.** inconclusive [cytotoxic, partial curve]

**Q.** Which Potency does the source give for `COc1cc(-c2noc(C)c2C#Cc2ccc(N)cc2)cc(OC)c1OC` here?
**A.** active: 0.651 µM

**Q.** For `c1csc(-c2ccc(N3CCOCC3)nn2)c1`, which Potency is on record?
**A.** inconclusive [cytotoxic, partial curve]

**Q.** Which Potency does the source give for `O=C(Nc1nc(COc2ccccc2)cs1)C12CC3CC(CC(C3)C1)C2` here?
**A.** inconclusive [cytotoxic, single point]
